Measurements as given in a compilation of properties of binary mixtures (doi:10.1021/je1011289).
Some of these densities may be calculated back from excess volumes.

Assay: xn = mol fraction of the nth substance listed
Settings: 101 kPa

SMILES: c1cc[nH]c1 + CC[n+]1ccn(C)c1.N#C[S-]
- mass density (298.15 K, x1 = 0.2): 1103.5 kg/m3
- mass density (298.15 K, x1 = 0.3): 1094.5 kg/m3
- mass density (298.15 K, x1 = 0.4): 1088.6 kg/m3
- mass density (298.15 K, x1 = 0.5): 1073.6 kg/m3
- mass density (298.15 K, x1 = 0.6): 1056.2 kg/m3
- mass density (298.15 K, x1 = 0.7): 1049.2 kg/m3
- mass density (298.15 K, x1 = 0.8): 1028.4 kg/m3
- mass density (303.15 K, x1 = 0.3): 1091.3 kg/m3
- mass density (303.15 K, x1 = 0.5): 1070.3 kg/m3
- mass density (303.15 K, x1 = 0.6): 1052.8 kg/m3
- mass density (303.15 K, x1 = 0.7): 1045.7 kg/m3
- mass density (308.15 K, x1 = 0.2): 1097.2 kg/m3
- mass density (308.15 K, x1 = 0.5): 1066.9 kg/m3
- mass density (308.15 K, x1 = 0.7): 1042.2 kg/m3
- mass density (308.15 K, x1 = 0.8): 1021 kg/m3
- mass density (313.15 K, x1 = 0.2): 1094.1 kg/m3
- mass density (313.15 K, x1 = 0.3): 1085 kg/m3
- mass density (313.15 K, x1 = 0.4): 1079 kg/m3
- mass density (313.15 K, x1 = 0.5): 1063.6 kg/m3
- mass density (313.15 K, x1 = 0.6): 1045.8 kg/m3
- mass density (313.15 K, x1 = 0.7): 1038.8 kg/m3
- mass density (313.15 K, x1 = 0.8): 1017.4 kg/m3
- mass density (318.15 K, x1 = 0.2): 1091 kg/m3
- mass density (318.15 K, x1 = 0.3): 1081.9 kg/m3
- mass density (318.15 K, x1 = 0.4): 1075.8 kg/m3
- mass density (318.15 K, x1 = 0.5): 1060.4 kg/m3
- mass density (318.15 K, x1 = 0.6): 1042.4 kg/m3
- mass density (323.15 K, x1 = 0.2): 1087.9 kg/m3
- mass density (323.15 K, x1 = 0.3): 1078.8 kg/m3
- mass density (323.15 K, x1 = 0.4): 1072.6 kg/m3
- mass density (323.15 K, x1 = 0.7): 1031.9 kg/m3
- mass density (323.15 K, x1 = 0.8): 1010.1 kg/m3

SMILES: c1ccc2c(c1)CCN2 + CC[n+]1ccn(C)c1.N#C[S-]
- mass density (298.15 K, x1 = 0.3): 1109.3 kg/m3
- mass density (298.15 K, x1 = 0.4): 1106.1 kg/m3
- mass density (298.15 K, x1 = 0.6): 1099.2 kg/m3
- mass density (298.15 K, x1 = 0.7): 1092.7 kg/m3
- mass density (303.15 K, x1 = 0.2): 1110 kg/m3
- mass density (303.15 K, x1 = 0.3): 1106.1 kg/m3
- mass density (303.15 K, x1 = 0.5): 1100.9 kg/m3
- mass density (303.15 K, x1 = 0.6): 1095.9 kg/m3
- mass density (308.15 K, x1 = 0.2): 1106.9 kg/m3
- mass density (308.15 K, x1 = 0.5): 1097.6 kg/m3
- mass density (308.15 K, x1 = 0.6): 1092.6 kg/m3
- mass density (308.15 K, x1 = 0.7): 1085.8 kg/m3
- mass density (308.15 K, x1 = 0.8): 1076.5 kg/m3
- mass density (313.15 K, x1 = 0.2): 1103.8 kg/m3
- mass density (313.15 K, x1 = 0.3): 1099.9 kg/m3
- mass density (313.15 K, x1 = 0.4): 1096.5 kg/m3
- mass density (313.15 K, x1 = 0.6): 1089.2 kg/m3
- mass density (313.15 K, x1 = 0.7): 1082.4 kg/m3
- mass density (313.15 K, x1 = 0.8): 1072.9 kg/m3
- mass density (318.15 K, x1 = 0.2): 1100.8 kg/m3
- mass density (318.15 K, x1 = 0.3): 1096.7 kg/m3
- mass density (318.15 K, x1 = 0.4): 1093.3 kg/m3
- mass density (318.15 K, x1 = 0.5): 1091.1 kg/m3
- mass density (318.15 K, x1 = 0.6): 1085.9 kg/m3
- mass density (318.15 K, x1 = 0.7): 1078.9 kg/m3
- mass density (318.15 K, x1 = 0.8): 1069.3 kg/m3
- mass density (323.15 K, x1 = 0.2): 1097.7 kg/m3
- mass density (323.15 K, x1 = 0.3): 1093.6 kg/m3
- mass density (323.15 K, x1 = 0.4): 1090.1 kg/m3
- mass density (323.15 K, x1 = 0.5): 1087.9 kg/m3
- mass density (323.15 K, x1 = 0.6): 1082.6 kg/m3
- mass density (323.15 K, x1 = 0.8): 1065.6 kg/m3

SMILES: c1ccc2ncccc2c1 + CC[n+]1ccn(C)c1.N#C[S-]
- mass density (298.15 K, x1 = 0.2): 1117.3 kg/m3
- mass density (298.15 K, x1 = 0.3): 1117.2 kg/m3
- mass density (298.15 K, x1 = 0.5): 1116.3 kg/m3
- mass density (298.15 K, x1 = 0.6): 1114 kg/m3
- mass density (298.15 K, x1 = 0.7): 1112.2 kg/m3
- mass density (298.15 K, x1 = 0.8): 1108.4 kg/m3
- mass density (303.15 K, x1 = 0.2): 1114.1 kg/m3
- mass density (303.15 K, x1 = 0.3): 1114.1 kg/m3
- mass density (303.15 K, x1 = 0.4): 1113.8 kg/m3
- mass density (303.15 K, x1 = 0.5): 1113.1 kg/m3
- mass density (303.15 K, x1 = 0.8): 1104.9 kg/m3
- mass density (308.15 K, x1 = 0.2): 1111 kg/m3
- mass density (308.15 K, x1 = 0.3): 1110.9 kg/m3
- mass density (308.15 K, x1 = 0.6): 1107.1 kg/m3
- mass density (308.15 K, x1 = 0.7): 1105.3 kg/m3
- mass density (308.15 K, x1 = 0.8): 1101.2 kg/m3
- mass density (313.15 K, x1 = 0.2): 1107.9 kg/m3
- mass density (313.15 K, x1 = 0.3): 1107.7 kg/m3
- mass density (313.15 K, x1 = 0.4): 1107.4 kg/m3
- mass density (313.15 K, x1 = 0.6): 1103.7 kg/m3
- mass density (313.15 K, x1 = 0.7): 1101.8 kg/m3
- mass density (313.15 K, x1 = 0.8): 1097.6 kg/m3
- mass density (318.15 K, x1 = 0.2): 1104.7 kg/m3
- mass density (318.15 K, x1 = 0.3): 1104.5 kg/m3
- mass density (318.15 K, x1 = 0.5): 1103.3 kg/m3
- mass density (318.15 K, x1 = 0.6): 1100.2 kg/m3
- mass density (318.15 K, x1 = 0.7): 1098.3 kg/m3
- mass density (323.15 K, x1 = 0.2): 1101.6 kg/m3
- mass density (323.15 K, x1 = 0.4): 1101 kg/m3
- mass density (323.15 K, x1 = 0.5): 1100 kg/m3
- mass density (323.15 K, x1 = 0.6): 1096.8 kg/m3
- mass density (323.15 K, x1 = 0.8): 1090.4 kg/m3
